The values below come from ChEMBL document CHEMBL1201862, “PubChem BioAssay data set” (2004).

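Briefly, cells in 96-well plates were exposed to five compound concentrations for 48 h, and endpoints were estimated by linear interpolation. GI50 is the concentration that inhibits growth by half.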 The source made the active and inactive calls. Cut-off read from the data, not from the text of the source: active = GI50 up to about 1.1 µM and inactive = higher. A value given as a limit tells only on which side of the number the result lay.

For this test, the system named is NCI-H322M. The test can be described thus: growth of human tumour cells (NCI), 48 h.
Turning to `CCCCCCCCC/C=C1/CC(CO)(COC(=O)c2ccccc2)OC1=O` (centres undefined), the GI50 was inactive: 22.8 µM.

Consider `Cc1cc(S(=O)(=O)Nc2nc(N)n(-c3ccccc3)n2)c(S)cc1Cl`, for which the GI50 was inactive: > 100 µM.

Consider `N=C(N)NC(=N)Nc1ccc(S(N)(=O)=O)cc1`, for which the GI50 was inactive: > 100 µM.

Take `CCn1c(-c2c(Cl)cc(O)cc2Cl)cc2c(Cl)cc(O)cc21`: the GI50 is inactive: 10.7 µM.

In the case of `CC(=O)Oc1cc2c(cc1OC(C)=O)[C@H]1CC[C@]3(C)[C@@H](OC(C)=O)CC[C@H]3[C@@H]1CC2`, the GI50 was inactive: 7.23 µM.

Turning to `O=C(O)Cc1cccnc1`, the GI50 was inactive: > 100 µM.

As to `O=C1CC(=O)N(C2CCCCC2)C(=O)N1c1ccccc1S(=O)(=O)Oc1ccccc1`, the GI50 is inactive: > 100 µM.

For the molecule `C=C1CCc2ccccc2C1=O`, the GI50 is inactive: > 100 µM.

Take `NC(=O)C1=CC2C3C=CC2(O)C(=O)OC3O1` (centres undefined): the GI50 is inactive: 13.6 µM.

Consider `CCOc1ccccc1NC(=O)C1=C(C)NC(C)=C(C(=O)Nc2ccccc2OCC)C1c1ccc2c(c1)OCO2`, for which the GI50 is inactive: 50.2 µM.

As for `Cc1ccc(S(=O)OC2c3ccccc3Cc3ccccc32)cc1` (centres undefined), the GI50 is inactive: 23.9 µM.

In the case of `CCOC(=O)C[C@@H](C)[C@]1(C(=O)OC)CCCC1=O`, the GI50 was inactive: > 100 µM.

As for `O=c1cccccc1NCCCCNc1cccccc1=O`, the GI50 was inactive: > 100 µM.

On to `NC1=Nc2ccccc2Sc2nnc(-c3ccc(Cl)cc3)n21`, for which the GI50 was inactive: > 100 µM.

As for `O=C1/C(=C/c2ccc(O)c(CN3CCCCC3)c2)CCC/C1=C\c1ccc(O)c(CN2CCCCC2)c1`, the GI50 is inactive: 15.5 µM.

As to `O=c1oc2ccc(Cl)cc2c2ccccc12`, the GI50 is inactive: > 100 µM.

Take `O=C1CCCCC2N(C(c3ccccc3)c3ccccc3)CC[C@@]12c1ccccc1.O=C1CCCC[C@H]2N(C(c3ccccc3)c3ccccc3)CC[C@@]12c1ccccc1` (some centres undefined): the GI50 was inactive: > 10 µM.

With `Cc1c(C)n(-c2ccccc2)c2nc([S+](C)[O-])nc([S+](C)[O-])c12` (centres undefined), the GI50 is inactive: 17.3 µM.

Take `CC(=O)NNc1ncc(C(=O)/C=C/c2ccccc2C)s1`: the GI50 was inactive: > 100 µM.

As to `CCCCC(=O)Nc1ccc2cc(C(=O)OC)c(Cl)nc2n1`, the GI50 was inactive: 4.72 µM.

In the case of `COCCN(C(C)=O)C1CCC2(SCCS2)c2[nH]c3ccccc3c21` (centres undefined), the GI50 is inactive: > 100 µM.

As to `C/C(C=O)=N\Nc1cc(C)c2ccccc2n1`, the GI50 is inactive: 16.2 µM.

Regarding `Cc1cccc(NC(=O)CC(=O)N2N=C(N(CCC#N)c3ccc(Cl)cc3)CC2c2ccccc2)c1` (centres undefined), the GI50 is inactive: > 100 µM.

Regarding `N#Cc1nc(-c2ccsc2)oc1N`, the GI50 is inactive: > 100 µM.

Consider `CN(C)/N=N/c1ccc([N+](=O)[O-])cc1C(N)=O`, for which the GI50 is inactive: > 100 µM.

Take `C#C[C@@]1(O)CCCC2=CC3(CC[C@]21C)SCCS3`: the GI50 was inactive: > 100 µM.

Take `O=C1CCC(=O)C1=NNc1cc(Cl)cc(Cl)c1`: the GI50 was inactive: > 100 µM.

As for `COc1ccc(/C=C2/S/C(=N\c3ccccc3)N(NC(=O)Cc3ccccc3)C2=O)c(OC)c1`, the GI50 was inactive: > 100 µM.

With `O=C(c1ccco1)N(C(=S)OCc1ccccn1)c1ccccc1`, the GI50 is inactive: > 100 µM.

Take `CN(C)C(=O)OC(Cn1cncn1)c1ccc(Cl)cc1Cl` (centres undefined): the GI50 is inactive: > 100 µM.

As for `CC(C)(C)c1cc(C(=O)C2Cc3ccccc3C(=O)O2)cc(C(C)(C)C)c1O` (centres undefined), the GI50 was inactive: 14.1 µM.

For the molecule `C=CCOc1ccc(C(=N/NC(=O)c2ccccc2)/N=N/c2ccc(C)cc2)cc1OC`, the GI50 is inactive: 38.4 µM.

Turning to `COc1cc(CNc2c3ccccc3nc3ccccc23)cc(OC)c1OC`, the GI50 is inactive: 3.94 µM.

As to `COc1ccc(-c2nc(-c3cnccn3)n(COCCO)n2)cc1`, the GI50 is inactive: > 100 µM.

Regarding `CCCCCCn1c(SC)nc(COC(=O)NC)c1COC(=O)NC`, the GI50 was inactive: 17.9 µM.

Turning to `O=C1N[C@@H](O)[C@@H]2ON=C(c3ccccc3)[C@H]12`, the GI50 was inactive: > 100 µM.

In the case of `C=C(COC(=O)C(C)C)[C@H]1Oc2ccc(C(C)=O)cc2[C@@H]1OC(=O)C(C)C`, the GI50 was inactive: > 100 µM.

Regarding `O=[N+]([O-])c1cccc(-c2csc(N/N=C3\NC/C(=C/c4ccc5c(c4)OCO5)S3)n2)c1`, the GI50 was inactive: 40.6 µM.

Regarding `C=C(C)C(=O)O[C@@H]1C[C@@]2(C)O[C@@H]2C[C@H](O)/C(C)=C/[C@H]2OC(=O)C(=C)[C@@H]21`, the GI50 is inactive: > 100 µM.

On to `Cc1ccc2c(=O)c(C(=O)Nn3c(C)csc3=S)c[nH]c2n1`, for which the GI50 is inactive: > 100 µM.

With `CN(C)CCNC(=O)c1cccc2ccc(-c3ccc(Br)cc3)nc12`, the GI50 was inactive: 3.21 µM.

Turning to `C/C(=N\NC(=S)N1CCCCCCCCCCCC1)c1ccccn1`, the GI50 was active: 0.31 µM.

Take `O=c1cc2ccccc2nn1Cc1cccc(Cl)c1`: the GI50 is inactive: > 100 µM.

Take `COC(=O)c1c(O)ccc2c1c1c(n2Cc2ccccc2OC)C(=O)c2ccccc2C1=O`: the GI50 is inactive: 24.8 µM.

As to `O=C(O)c1ccccc1NC(=S)c1ccccc1`, the GI50 was inactive: 79.3 µM.

As to `COC(=O)C1=C(C(=O)OC)SC2(S1)C(C(=O)OC)=C(C(=O)OC)Sc1c2ss/c1=N/C(C)(C)C`, the GI50 is inactive: 5.01 µM.

On to `COc1cc(S(=O)(=O)Nc2ccc(-c3csc(/N=C\C=C\c4ccccc4)n3)cc2)ccc1Cl`, for which the GI50 was inactive: > 100 µM.

`CNC(=S)NN=C1NCCCCN1`: the GI50 was inactive: > 100 µM.

Take `Cc1cc2ccccc2n2c1nc1ccc(O)cc12`: the GI50 is inactive: > 10 µM.

In the case of `COC(CC1(/C=C/O[Si](C(C)C)(C(C)C)C(C)C)C(=O)N(C)c2ccccc21)OC` (centres undefined), the GI50 was inactive: > 100 µM.

`CC1=CC=NN2C(=O)[C@H](C)C2C1` (some centres undefined): the GI50 is inactive: > 100 µM.

`OC(CN(CCCl)CCCl)C(O)C(O)C(O)CN(CCCl)CCCl` (centres undefined): the GI50 is inactive: > 100 µM.

Regarding `Clc1nncc2sc(-c3ccccc3)nc12`, the GI50 was inactive: 15.8 µM.

In the case of `Cc1ccc(C(=O)OC[C@H]2CC[C@@H](n3cc(N(C)C4CCCCC4)c(=O)[nH]c3=O)O2)cc1`, the GI50 was inactive: 49.5 µM.

Regarding `CC[C@@H]1CC[C@@H]2[C@H](CC[C@]3(C)[C@@H](OS(=O)(=O)c4ccc(C)cc4)CC[C@@H]23)[C@H]1COS(=O)(=O)c1ccc(C)cc1`, the GI50 was inactive: > 100 µM.

As to `CC(C(=O)c1ccc(O)cc1)C1(O)C(=O)Nc2c(Cl)cc(Cl)cc21` (centres undefined), the GI50 was inactive: > 100 µM.

For the molecule `O=C(/C=C/C(=O)N1CCCC1)N1CCCC1`, the GI50 is inactive: > 100 µM.

Regarding `CCOC(=O)c1sc2nc(SC)nc3c2c1NCN3C1CC1`, the GI50 is inactive: > 100 µM.

For `Cc1ccc(S(=O)(=O)c2c(N)n(CCN(C)C)c3nc4ccccc4nc23)cc1`, the GI50 was inactive: > 100 µM.

Take `CC(C)Cc1ccc(C(C)/C=C2\CCC(CN(C)C)C2=O)cc1` (centres undefined): the GI50 is inactive: 19.2 µM.

Turning to `COc1cc(/C=N/c2nc3cc4sc(/N=C/c5cc(OC)c(OC)c(OC)c5)nc4cc3s2)cc(OC)c1OC`, the GI50 is inactive: > 100 µM.

In the case of `N=C(N)N/N=C(/CCN1CCCC1)CC(c1ccccc1)c1c(O)c2ccccc2oc1=O` (centres undefined), the GI50 is inactive: > 100 µM.

For the molecule `CC1(C)[C@@H](Cn2cc(I)c(=O)[nH]c2=O)CC[C@@]1(C)CO`, the GI50 is inactive: > 100 µM.

`CC1(C)CCCCCC(C)(CCCCCCCCCCCO)C1=O` (centres undefined): the GI50 was inactive: 15.3 µM.

`CCC(C)c1cccc(C)c1NC(=O)C(=O)Cc1nc2ccccc2s1` (centres undefined): the GI50 is inactive: > 100 µM.

Consider `Cn1c(-c2cccs2)cc(-c2ccsc2)c1-c1ccsc1`, for which the GI50 is inactive: 88.9 µM.

On to `O/N=C1/COC(C(F)(F)F)(C(F)(F)F)C1`, for which the GI50 is inactive: > 100 µM.

For the molecule `Cn1c(C(O)C2(c3cccnc3)SCCCS2)cc2ccccc21` (centres undefined), the GI50 was inactive: > 100 µM.

As for `Cc1n[nH]c(=S)n1/N=C/c1ccc(-c2ccc(Cl)cc2)o1`, the GI50 was inactive: > 100 µM.

For `O=C(CCc1n[nH]c(=S)o1)Nc1ccccc1C(F)(F)F`, the GI50 is inactive: > 100 µM.

In the case of `O=P1(c2ccccc2)C(c2ccccc2)=CC=C1c1ccccc1`, the GI50 was inactive: 20 µM.

As to `O=C1CSC2=NC3=C(COC/C3=C\c3ccc(Br)cc3)C(c3ccc(Br)cc3)N12` (centres undefined), the GI50 is inactive: 58.5 µM.

Take `CC1CNC(c2ccc(COc3ccc(C4=NC(C)CN4)cc3)cc2)=N1` (centres undefined): the GI50 was inactive: > 100 µM.

With `Cc1ccc(N(C)S(=O)(=O)c2ccc([N+](=O)[O-])cc2)cc1`, the GI50 is inactive: > 100 µM.

For the molecule `CC(=O)OCC(=O)[C@@]1(O)CC[C@H]2[C@@H]3C[C@H](C)C4=CC(=O)C=C[C@]4(C)[C@@]3(F)[C@@H](O)C[C@@]21C`, the GI50 is inactive: > 100 µM.

As for `CCN(CC)CCNC(=O)c1cccc2nc3ccccc3nc12`, the GI50 is inactive: 8.11 µM.

For the molecule `C[N+]12CCCCC1C(CN1C(=O)Cc3c4ccccc4c(c4ccccc34)CC1=O)CCC2` (centres undefined), the GI50 is inactive: > 100 µM.

In the case of `COC1=CC(=O)C2C(C1=O)[C@@H]1c3ccccc3OC[C@H]21` (some centres undefined), the GI50 was inactive: > 100 µM.

With `O=[N+]([O-])c1ccc2c(/N=N/c3c(O)ccc4ccccc34)c(O)cc(S(=O)(=O)O)c2c1`, the GI50 was inactive: 10.7 µM.

With `O=C(NCc1ccccc1)c1nn[nH]c1O`, the GI50 is inactive: > 100 µM.

Take `Cc1[nH]n(-c2nc(-c3ccccc3)cc(=O)[nH]2)c(=O)c1CCO`: the GI50 is inactive: > 100 µM.

Take `CC1=NN(C(=O)c2ccc(Cl)cc2)C(=O)/C1=C/c1ccc(Cl)cc1`: the GI50 is inactive: > 100 µM.

In the case of `CC1(C)N=C(N)N=C(N)N1c1cccc(OCCOc2ccc([N+](=O)[O-])cc2)c1`, the GI50 was inactive: > 100 µM.

For `O=C(Nc1ccccc1)OCc1nc2c([nH]1)C(=O)C=CC2=O`, the GI50 is inactive: 13.8 µM.
